Measured values taken from publication PMC3990635.
Results are given in words; binding and its absence hold for the method and conditions named. In cells and extracts the contact can be indirect. Some binding calls cover weakened binding; strength is not graded here. For some assays here: Tags and fused reporters may be left off the sequences shown.

Chains of the proteins cited; added tags and fusions are not shown.
UniProt P50148: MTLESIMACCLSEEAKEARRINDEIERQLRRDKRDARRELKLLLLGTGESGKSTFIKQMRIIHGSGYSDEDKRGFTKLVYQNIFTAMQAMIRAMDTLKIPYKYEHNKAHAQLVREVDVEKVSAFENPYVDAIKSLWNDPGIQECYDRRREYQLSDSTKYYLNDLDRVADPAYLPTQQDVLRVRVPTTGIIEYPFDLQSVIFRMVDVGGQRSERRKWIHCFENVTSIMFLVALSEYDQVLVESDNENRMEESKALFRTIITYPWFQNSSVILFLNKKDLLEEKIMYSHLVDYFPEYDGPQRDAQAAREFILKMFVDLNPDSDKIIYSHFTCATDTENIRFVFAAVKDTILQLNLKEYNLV
UniProt P63092: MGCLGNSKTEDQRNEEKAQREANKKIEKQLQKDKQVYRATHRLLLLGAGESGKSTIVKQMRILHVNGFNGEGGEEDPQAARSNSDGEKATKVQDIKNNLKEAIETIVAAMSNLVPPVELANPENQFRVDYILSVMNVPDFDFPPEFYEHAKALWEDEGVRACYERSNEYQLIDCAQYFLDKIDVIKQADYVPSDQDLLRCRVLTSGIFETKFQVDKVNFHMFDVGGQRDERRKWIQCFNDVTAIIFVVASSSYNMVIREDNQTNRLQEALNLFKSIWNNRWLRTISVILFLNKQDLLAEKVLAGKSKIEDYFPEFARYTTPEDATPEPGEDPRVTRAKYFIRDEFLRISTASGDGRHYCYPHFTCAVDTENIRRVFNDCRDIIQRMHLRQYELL
UniProt P49798: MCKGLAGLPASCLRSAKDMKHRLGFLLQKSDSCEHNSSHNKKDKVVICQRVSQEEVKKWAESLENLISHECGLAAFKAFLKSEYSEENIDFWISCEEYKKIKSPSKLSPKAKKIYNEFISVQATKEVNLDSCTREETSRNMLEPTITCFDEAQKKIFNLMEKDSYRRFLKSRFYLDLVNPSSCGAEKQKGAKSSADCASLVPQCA

T1: PAR1-Venus (mouse) (UniProt P30558)
T1 sequence: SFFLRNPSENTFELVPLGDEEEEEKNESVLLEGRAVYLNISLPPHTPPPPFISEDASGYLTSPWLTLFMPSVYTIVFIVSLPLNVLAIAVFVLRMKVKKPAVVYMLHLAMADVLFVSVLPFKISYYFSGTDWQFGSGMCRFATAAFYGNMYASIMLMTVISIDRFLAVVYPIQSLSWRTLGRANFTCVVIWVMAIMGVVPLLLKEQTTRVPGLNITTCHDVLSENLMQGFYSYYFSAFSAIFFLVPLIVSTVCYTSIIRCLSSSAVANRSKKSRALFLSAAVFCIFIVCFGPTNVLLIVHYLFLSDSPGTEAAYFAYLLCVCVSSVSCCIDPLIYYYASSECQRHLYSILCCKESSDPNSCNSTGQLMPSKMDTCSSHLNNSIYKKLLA

T2: PAR1^R205A-Venus (mouse) (UniProt P30558)
T2 sequence: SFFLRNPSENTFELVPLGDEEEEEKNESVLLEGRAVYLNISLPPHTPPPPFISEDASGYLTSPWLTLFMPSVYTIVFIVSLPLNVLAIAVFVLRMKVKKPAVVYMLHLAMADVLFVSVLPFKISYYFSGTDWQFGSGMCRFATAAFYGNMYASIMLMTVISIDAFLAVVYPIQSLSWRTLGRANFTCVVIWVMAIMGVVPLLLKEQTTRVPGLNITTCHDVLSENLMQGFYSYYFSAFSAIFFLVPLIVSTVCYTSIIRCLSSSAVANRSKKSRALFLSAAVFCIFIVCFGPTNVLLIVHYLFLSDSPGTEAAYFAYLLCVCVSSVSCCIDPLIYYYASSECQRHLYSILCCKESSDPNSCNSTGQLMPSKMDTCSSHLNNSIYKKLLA

B1: RGS2-Luciferase (protein, UniProt P41220 1-211)
chain: MQSAMFLAVQHDCRPMDKSAGSGHKSEEKREKMKRTLLKDWKTRLSYFLQNSSTPGKPKTGKKSKQQAFIKPSPEEAQLWSEAFDELLASKYGLAAFRAFLKSEFCEENIEFWLACEDFKKTKSPQKLSSKARKIYTDFIEKEAPKEINIDFQTKTLIAQNIQEATSGCFTTAQKRVYSLMENNSYPRFLESEFYQDLCKKPQITTEPHAT
B2: RGS14-Luciferase (protein, UniProt O08773 1-544)
chain: MPGKPKHLGVPNGRMVLAVSDGELTSTSGSQAQGEGRGSSLSIHSLPSGPSSPFSTDEQPVASWAQSFERLLQDPRGLAYFTEFLKKEFSAENVTFWQACERFQQIPASDTKQLAQEAHNIYHEFLSSQALSPVNIDRQAWLSEEVLAQPRPDMFRAQQLQIFNLMKFDSYARFVKSPLYQECLLAEAEGRPLREPGSSHLGSPDTARKKPKLKPGKSLPLGVEELGQLPLAEGRPLRKSFRREMPGGAVNSALRRESQGSLNSSASLDLGFLAFVSSKSESHRKSLGSGEGESESRPGKYCCVYLPDGTASLALARPGLTIRDMLAGICEKRGLSLPDIKVYLVGKEQKALVLDQDCTVLADQEVRLENRITFQLELVGLERVVRISAKPTKRLQEALQPILAKHGLSLDQVVLHRPGEKQLVDLENLVSSVASQTLVLDTLPDAKTREASSIPPCRSQGCLPRTQTKDSHLPPLSSSLSVEDASGSTGKRQTCDIEGLVELLNRVQSSGAHDQRGLLRKEDLVLPEFLQLPSQRPGSQEAPP

Assays:
PAR1-Venus (mouse) [1] = target: T1, PAR1-Venus (mouse); experiment: FRET or BRET; BRET in live COS7 cells; RGS4-Luc donor, PAR1-Ven acceptor; untagged Gαo (0.5 µg) co-transfected; absence and presence of 30 µM TFLLR
PAR1-Venus (mouse) [2] = target: T1, PAR1-Venus (mouse); experiment: FRET or BRET; BRET in live COS7 cells; fixed RGS-Luc donor, PAR1-Ven acceptor (increasing or fixed amount); no Gα co-transfected; absence and presence of 30 µM TFLLR; Tyrode's solution, coelenterazine H 5 µM
Gαq-YFP [3] = target: Gαq-YFP (UniProt P50148); experiment: FRET or BRET; BRET in live COS7 cells; RGS2-Luc (35 ng) donor, Gα-YFP (0.75 µg) acceptor; without PAR1-FLAG and TFLLR
Gαs-YFP [4] = target: Gαs-YFP (UniProt P63092); experiment: as above
PAR1-Venus (mouse) [5] = target: T1, PAR1-Venus (mouse); experiment: FRET or BRET; BRET in live COS7 cells; RGS2-Luc donor, PAR1-Ven acceptor; untagged Gαq or Gα11 (0.5 µg) co-transfected; absence and presence of 30 µM TFLLR
PAR1^R205A-Venus (mouse) [6] = target: T2, PAR1^R205A-Venus (mouse); experiment: as above
Gαq-YFP [7] = target: Gαq-YFP (UniProt P50148); experiment: FRET or BRET; BRET in live COS7 cells; RGS2-Luc (35 ng) donor, Gα-YFP (0.75 µg) acceptor; 0.5 µg PAR1-FLAG co-transfected; absence and presence of 30 µM TFLLR
Gαs-YFP [8] = target: Gαs-YFP (UniProt P63092); experiment: as above
PAR1^R205A-Venus (mouse) [9] = target: T2, PAR1^R205A-Venus (mouse); experiment: FRET or BRET; BRET in live COS7 cells; fixed RGS-Luc donor, PAR1-Ven acceptor (increasing or fixed amount); no Gα co-transfected; absence and presence of 30 µM TFLLR; Tyrode's solution, coelenterazine H 5 µM

Molecule	binding (PAR1-Venus (mouse) [1])	binding (PAR1-Venus (mouse) [2])	binding (Gαq-YFP [3])	binding (Gαs-YFP [4])	binding (PAR1-Venus (mouse) [5])	binding (PAR1^R205A-Venus (mouse) [6])	binding (Gαq-YFP [7])	binding (Gαs-YFP [8])	binding (PAR1^R205A-Venus (mouse) [9])
RGS4-Luciferase (from UniProt P49798 1-205)	binds	binds weakly	–	–	–	–	–	–	–
B1	–	binds weakly	binds weakly	no binding	binds	binds weakly	binds	no binding	binds weakly
B2	–	no binding	–	–	–	–	–	–	–
